For four molecules, binding results are on record in publication PMC3891740.

No constants are given. Whether binding was seen depends on the method and setting. Binding seen in cells or lysates may run through a third protein. Some results given as binding are weak or reduced against the parent protein; the word gives no strength. For some assays here: Sequences can lack the tags named with a protein.

Test [1] has as its target FLAG-TMCC1 (FLAG-tagged full-length TMCC1) (human) (UniProt O94876). The test is described as follows: co-IP; HEK293T co-transfected with GFP-TMCC1 and FLAG-tagged TMCC1 full length or fragments; lysates (10 mM Tris-HCl pH 7.4, 150 mM NaCl, 1 mM MgCl2, 1 mM EDTA, 1% Triton X-100) precipitated with anti-FLAG M2 agarose at 4°C; western blot. Background: In western blotting, separated proteins are transferred to a membrane and probed.

The target in test [2] is FLAG-TMCC1(1–575) (human) (UniProt O94876). The description is as above.
In test [3] the target is FLAG-TMCC1(310–575) (human) (UniProt O94876). Described as above.
Test [4] has as its target FLAG-TMCC1(460–575) (human) (UniProt O94876). The description is as above.
The target in test [5] is FLAG-TMCC1(571–653) (human) (UniProt O94876). Described as above.
Test [6] concerns the target endogenous TMCC1 (human (endogenous in HEK293T and HeLa)) (UniProt O94876). The experiment in a line: co-IP; HEK293T transfected with GFP-tagged TMCC1(571–653), TMCC2 or TMCC3; endogenous TMCC1 precipitated with the TMCC1 antibody on Protein A agarose (normal rabbit IgG as control); western blot for TMCC1 and GFP-tagged proteins.

Consider “GFP-TMCC1 (GFP-tagged full-length transmembrane and coiled-coil domain family 1) (from UniProt O94876-1 1-653)”, for which the binding result in test [1] is “binds”; in test [2], “binds”; in test [3], “binds”; in test [4], “binds”; in test [5], “no binding”.

In the case of “GFP-TMCC1(571–653) (from UniProt O94876-1 571-653) (domain or fragment)”, the binding entry in test [6] is given as “no binding”.

B1: GFP-TMCC2 (protein, UniProt O75069-1 1-709)
chain: MKRCRSDELQQQQGEEDGAGLEDAASHLPGADLRPGETTGANSAGGPTSDAGAAAAPNPGPRSKPPDLKKIQQLSEGSMFGHGLKHLFHSRRRSREREHQTSQDSQQHQQQQGMSDHDSPDEKERSPEMHRVSYAMSLHDLPARPTAFNRVLQQIRSRPSIKRGASLHSSSGGGSSGSSSRRTKSSSLEPQRGSPHLLRKAPQDSSLAAILHQHQCRPRSSSTTDTALLLADGSNVYLLAEEAEGIGDKVDKGDLVALSLPAGHGDTDGPISLDVPDGAPDPQRTKAAIDHLHQKILKITEQIKIEQEARDDNVAEYLKLANNADKQQVSRIKQVFEKKNQKSAQTIAQLHKKLEHYRRRLKEIEQNGPSRQPKDVLRDMQQGLKDVGANVRAGISGFGGGVVEGVKGSLSGLSQATHTAVVSKPREFASLIRNKFGSADNIAHLKDPLEDGPPEEAARALSGSATLVSSPKYGSDDECSSASASSAGAGSNSGAGPGGALGSPKSNALYGAPGNLDALLEELREIKEGQSHLEDSMEDLKTQLQRDYTYMTQCLQEERYRYERLEEQLNDLTELHQNEMTNLKQELASMEEKVAYQSYERARDIQEAVESCLTRVTKLELQQQQQQVVQLEGVENANARALLGKFINVILALMAVLLVFVSTIANFITPLMKTRLRITSTTLLVLVLFLLWKHWDSLTYLLEHVLLPS
For B1, the binding result in test [6] was “binds”.

B2: GFP-TMCC3 (protein, UniProt Q9ULS5 1-477)
chain: MPGSDTALTVDRTYSYPGRHHRCKSRVERHDMNTLSLPLNIRRGGSDTNLNFDVPDGILDFHKVKLTADSLKQKILKVTEQIKIEQTSRDGNVAEYLKLVNNADKQQAGRIKQVFEKKNQKSAHSIAQLQKKLEQYHRKLREIEQNGASRSSKDISKDHLKDIHRSLKDAHVKSRTAPHCMESSKSGMPGVSLTPPVFVFNKSREFANLIRNKFGSADNIAHLKNSLEEFRPEASARAYGGSATIVNKPKYGSDDECSSGTSGSADSNGNQSFGAGGASTLDSQGKLAVILEELREIKDTQAQLAEDIEALKVQFKREYGFISQTLQEERYRYERLEDQLHDLTDLHQHETANLKQELASIEEKVAYQAYERSRDIQEALESCQTRISKLELHQQEQQALQTDTVNAKVLLGRCINVILAFMTVILVCVSTIAKFVSPMMKSRCHILGTFFAVTLLAIFCKNWDHILCAIERMIIPR
Regarding B2, the binding result in test [6] is “binds”.
